The name of at least one read-out is uncertain.
Test system: rats
Assay: Hypolipemic activity: hyperlipidemia experimentally induced by Triton in rats
Format: in vivo
Details: 18 h after i.v. Triton; for Hypolipemic activity, percentages of diminution: Cholesterol / Hypolipemic activity, percentages of diminution: Triglycerides / Hypolipemic activity, percentages of diminution: total lipids / Hypolipemic activity, percentages of diminution: β-lipoprotein: single p.o. dose mg/kg: clofibrate 225, Ex 1, 2: 500, Ex 3: 270, Ex 4: 127, Ex 5: 175, Ex 6: 310, Ex 12: 250, Ex 13: 140, Ex 14: 95; for Hypolipemic activity, percentages of diminution: optical serum density: serum at 691 nanometres, single p.o. dose mg/kg: Ex 1, 2: 500, Ex 3: 270, Ex 4: 127, Ex 5: 175, Ex 6: 310, Ex 12: 250, Ex 13: 140, Ex 14: 95
Description: The technique used to show these properties has been described by M. Friedman and S. E. Byers in : J. Exptl. Med. 97, 117, 1953 and likewise by S. Garattini and colleagues in Arzneim. Forsch. 9, 206, 1959.
The rats received intravenously 0.3 ml per 100 grams of body weight of a solution of Triton 13 39 at 10%. The products to be tested are administered simultaneously orally at a dose corresponding to a tenth of their LD 50, determined orally in mice, without the dose used exceeding 500 mg/kg.
Eighteen hours after the injection of Triton the animals are sacrificed by section of the carotid and the blood is collected to determined the lipid parameters : cholesterol (auto-analyser Technicon AA II Lieberman Burchard), beta- lipoproteins, (Burnstein), total lipids (Chabrol and Charonnat), triglycerides (Boehringer enzymatic).
The optical density of the serum at 691 nanometres is measured in each case. Each product was tested on ten animals. The statistic calculations were carried out on the averages affected by their divergence from the average using the Student test.
The reference compound used is clofibrate.

SMILES: CCOC(=O)C(C)(C)Oc1ccc(Cl)cc1 [Clofibrate, reference compound]
- Hypolipemic activity, percentages of diminution: Cholesterol: 28 percentages
- Hypolipemic activity, percentages of diminution: Triglycerides: 25 percentages
- Hypolipemic activity, percentages of diminution: total lipids: 26 percentages
- Hypolipemic activity, percentages of diminution: β-lipoprotein: 36 percentages

SMILES: NC(CO)CSCSCC(N)CO (stereo not drawn) [Example 1, 2,8-diamino-4,6-dithia-1,9-nonanediol]
- Hypolipemic activity, percentages of diminution: Cholesterol: 10 percentages

SMILES: NC(CO)CSCCCCSCC(N)CO (stereo not drawn) [Example 2, 2,11-diamino-4,9-dithia-1,12-dodecanediol]
- Hypolipemic activity, percentages of diminution: Triglycerides: 14 percentages

SMILES: NC(CO)CSCCCCCCSCC(N)CO (stereo not drawn) [Example 3, 2,13-diamino-4,11-dithia-1,14-tetradecanediol]
- Hypolipemic activity, percentages of diminution: Cholesterol: 4 percentages
- Hypolipemic activity, percentages of diminution: Triglycerides: 28 percentages
- Hypolipemic activity, percentages of diminution: total lipids: 27 percentages
- Hypolipemic activity, percentages of diminution: β-lipoprotein: 39 percentages
- Hypolipemic activity, percentages of diminution: optical serum density: 53 percentages

SMILES: NC(CO)CSCCCCCCCCSCC(N)CO (stereo not drawn) [Example 4, 2,15-diamino-4,13-dithia-1,16-hexadecanediol]
- Hypolipemic activity, percentages of diminution: Cholesterol: 10 percentages
- Hypolipemic activity, percentages of diminution: Triglycerides: 34 percentages
- Hypolipemic activity, percentages of diminution: β-lipoprotein: 24 percentages
- Hypolipemic activity, percentages of diminution: optical serum density: 57 percentages

SMILES: NC(CO)CSCCCCCCCCCCSCC(N)CO (stereo not drawn) [Example 5, 2,17-diamino-4,15-dithia-1,18-octadecanediol]
- Hypolipemic activity, percentages of diminution: Cholesterol: 8 percentages
- Hypolipemic activity, percentages of diminution: Triglycerides: 30 percentages
- Hypolipemic activity, percentages of diminution: optical serum density: 56 percentages

SMILES: NC(CO)CSSCC(N)CO (stereo not drawn) [Example 6, 2,7-diamino-4,5-dithia-1,8-octanediol]
- Hypolipemic activity, percentages of diminution: Cholesterol: 40 percentages
- Hypolipemic activity, percentages of diminution: Triglycerides: 42 percentages
- Hypolipemic activity, percentages of diminution: total lipids: 38 percentages
- Hypolipemic activity, percentages of diminution: β-lipoprotein: 46 percentages
- Hypolipemic activity, percentages of diminution: optical serum density: 78 percentages

SMILES: NC(CO)CCSCCCCCCSCCC(N)CO (stereo not drawn) [Example 12, 2,15-diamino-5,12-dithia-1,16-hexadecanediol]
- Hypolipemic activity, percentages of diminution: β-lipoprotein: 11 percentages

SMILES: NC(CO)CCSCCCCCCCCSCCC(N)CO (stereo not drawn) [Example 13, 2,17-diamino-5,14-dithia-1,18-octadecanediol]
- Hypolipemic activity, percentages of diminution: Cholesterol: 13 percentages
- Hypolipemic activity, percentages of diminution: Triglycerides: 33 percentages
- Hypolipemic activity, percentages of diminution: total lipids: 27 percentages
- Hypolipemic activity, percentages of diminution: β-lipoprotein: 23 percentages
- Hypolipemic activity, percentages of diminution: optical serum density: 48 percentages

SMILES: NC(CO)CCSCCCCCCCCCCSCCC(N)CO (stereo not drawn) [Example 14, 2,19-diamino-5,16-dithia-1,20-eicosanediol]
- Hypolipemic activity, percentages of diminution: β-lipoprotein: 15 percentages

Reference: US4153729A, “Therapeutically useful cysteinol and homocysteinol derivatives” (Recherches Pharmaceutiques et Scientifiques, priority 1977, dated 1979)
